# Source: PubChem BioAssay AID463173 (ICCB-Longwood Screening Facility, Harvard Medical School, 2010)
# Out of some 52,000 compounds screened, about 1,700 (3.3%) were called active. No stated cut-off is given here; in the data, active means survival mostly below about 52% (no sharp cut-off); inactive means mostly above about 56%. Some of the results follow.
# Tested on: Wild type
# Test: S. aureus survival, RN4220 and DeltatarO strains – OD600, teichoic acid synthesis inhibitors, primary screen (AID 463173)
# Conditions: S. aureus RN4220 wild type/DeltatarO growth, OD600, 18 h, active compounds read low, screened at 18.75 µg/mL (by protocol)
row,SMILES,survival
1,CCCOc1ccc(-c2nc(SCC(=O)c3ccc(Cl)cc3)n[nH]2)cc1,inactive: 151%
2,CC(=O)c1ccc(N2CCN(C(=O)C3CCN(S(=O)(=O)c4cn(C)cn4)CC3)CC2)cc1,inactive: 73%
3,Cn1c(=O)c2sccc2n2c(CCC(=O)NCc3ccc(Cl)cc3)nnc12,inactive: 144%
4,Cc1cccn2c(=O)c(C(=O)NCc3cccc(F)c3)cnc12,inactive: 79%
5,CCOc1ccc(CNC(=O)Cc2ccc(NC(=O)N3CCSc4ncccc43)cc2)cc1,inactive: 72%
6,CCC(=O)N(Cc1cc(=O)[nH]c2ccccc12)C1CCCCC1,inactive: 106%
7,Cc1cccc(-c2nc3scc(CCNS(=O)(=O)c4ccc5c(c4)OCCO5)n3n2)c1,inactive: 87%
8,Cc1ccc(Cl)cc1Nc1nn2c(=O)c3ccc(C(=O)NCc4ccc(F)cc4)cc3nc2s1,inactive: 135%
9,COc1ccc(Nc2c(-c3cccc(O)c3)nc3cnccn23)cc1,inactive: 57%
10,CCOC(=O)N1CCc2c(sc3c2c(=O)n(-c2ccc(Cl)cc2)c(=O)n3CC(C)C)C1,inactive: 78%
11,COc1ccc(-c2nc3cc(NC(=O)CSc4ccc(C)cc4)ccc3o2)cc1,inactive: 92%
12,CC(C)C(c1nnnn1Cc1ccccc1)N1CCC(C(N)=O)CC1 (stereo not drawn),inactive: 98%
13,COc1ccc(NC(=O)c2oc3ccccc3c2NC(=O)Cc2coc3c(C)c(C)ccc23)cc1,inactive: 102%
14,COc1ccccc1-c1cc(C(=O)NCc2ccccc2)c2c(-c3ccc(C)cc3)[nH]nc2n1,inactive: 74%
15,O=C(Nc1ncc(Cc2ccccc2)s1)C1CCCO1 (stereo not drawn),inactive: 113%
16,CCc1ccc(NC(=O)Cn2ccn(-c3ccc(C)c(C)c3)c(=O)c2=O)cc1,inactive: 120%
17,Cc1ccc(S(=O)(=O)c2nc(S(=O)(=O)c3ccccc3)sc2NCCCOC(C)C)cc1,inactive: 83%
18,C=CCc1c(C)nc(SC)[nH]c1=O,inactive: 114%
19,Cc1c(Cl)cccc1NC(=O)CCS(=O)(=O)c1ccc2c(c1)CC(=O)N2C,inactive: 85%
20,O=C(CSc1n[nH]c(-c2ccc(F)cc2)n1)NCCc1ccccc1,inactive: 120%

row,SMILES,survival
1,CCOc1ccc(NC(=O)/C(C#N)=C\c2ccc(-c3ccc(Cl)cc3)o2)cc1,inactive: 59%
2,COc1cccc(NC(=O)Cn2cc(C(=O)c3ccc(C)cc3)c(=O)c3cc(OC)ccc32)c1,inactive: 67%
3,Cc1ccccc1NC(=O)Cn1c(=O)n(Cc2ccc3c(c2)OCO3)c(=O)c2ccccc21,inactive: 86%
4,CCN(CC)CCNC(=O)c1c2c(nc3ccccc13)C(=O)N(C1CCCCC1)C2,inactive: 75%
5,Cc1ccc(S(=O)(=O)NCCc2cn3ccsc3n2)c(C)c1,inactive: 81%
6,CCc1ccc(NC(=O)CN2C(=O)C3(SCC(=O)N3c3ccc(F)c(F)c3)c3ccccc32)cc1 (stereo not drawn),inactive: 125%
7,Cc1cc2ccccc2n1CCNC(=O)c1ccc(Br)cc1,inactive: 74%
8,CCc1nc2nc(C)cc(Nc3cccc(C)c3C)n2n1,inactive: 75%
9,Cc1cccc(C2CC(=O)Nc3cc4c(cc32)OCO4)c1 (stereo not drawn),inactive: 89%
10,N#Cc1cc2c(nc1S(=O)(=O)Cc1ccccc1)CCCC2,inactive: 122%
11,COc1ccc(CNC(=O)CCc2c(C)c3cc4c(C)c(C)oc4cc3oc2=O)cc1OC,inactive: 111%
12,CC(C)c1ccc(OCC(=O)N(Cc2cccs2)C2CCS(=O)(=O)C2)cc1 (stereo not drawn),inactive: 73%
13,COC(=O)c1ccc(NC(=O)CN2C(=O)CC(c3ccccc3)Sc3ccccc32)cc1 (stereo not drawn),inactive: 93%
14,Cc1cc(C)n(C(C)CC(=O)Nc2ccc(C)c(N(C)C)c2)n1 (stereo not drawn),inactive: 83%
15,C=C(C)CSc1nc(-c2ccccc2)cc(-c2ccc(OC)cc2)c1C#N,inactive: 75%
16,CCOc1cc(Cl)c(S(=O)(=O)n2ccnc2)cc1Cl,inactive: 74%
17,Cc1nnc(N2CCC(C(=O)NCCC(C)C)CC2)c2nn(-c3ccc(Cl)cc3)c(C)c12,inactive: 74%
18,CCC(C(=O)N1CCN(c2ccccc2)CC1)n1c(C)c2cnn(-c3ccccc3)c(=O)c2c1C (stereo not drawn),inactive: 81%
19,O=C(NC1CCCC1)c1ccc2c(=O)n(Cc3ccccc3)c(SCc3cccc(F)c3)nc2c1,inactive: 68%
20,CCN(CC)c1ccc(NC(=O)CCCN2C(=O)C(c3ccccc3)Oc3cccnc32)c(C)c1 (stereo not drawn),inactive: 87%

row,SMILES,survival
1,CCCCC1C(=O)NC(=Nc2nc(C)c3ccc(OC)cc3n2)NC1=O (stereo not drawn),inactive: 103%
2,Cc1ccc(N2CC(C(=O)Nc3ccc(N(C)C)cc3)CC2=O)cc1Cl (stereo not drawn),inactive: 69%
3,CSc1ccc(-c2nnc(NC(=O)c3ccc4c(c3)OCCO4)o2)cc1,inactive: 87%
4,Fc1ccccc1N1CCN(c2nc3ccccc3c3nc(-c4ccccc4)nn23)CC1,inactive: 79%
5,CC(=O)Nc1ccc(OCC(O)CN2CCN(c3ccc(C)c(Cl)c3)CC2)cc1 (stereo not drawn),inactive: 98%
6,O=C1CSC(=O)N1CCc1ccccc1,inactive: 101%
7,CSc1nc(NC(N)=S)nc(NC(C)C)n1,inactive: 95%
8,CC(=O)Nc1cccc(-n2cc3c(c2-c2ccccc2Cl)c(=O)n(C)c(=O)n3C)c1,inactive: 90%
9,O=C(CCn1ccc2cc(S(=O)(=O)N3CCCC3)ccc21)NCc1ccccc1Br,inactive: 72%
10,Cc1cccc2cc(CN(C(=O)C3CC3)C3CCCC3)c3nnnn3c12,inactive: 99%
11,CCOC(=O)CNc1nc(C(C)(C)C)nc2c1nnn2Cc1ccccc1,inactive: 114%
12,CC(C)Oc1ccc(C(=O)Nc2c(C(=O)Nc3cccc(F)c3)oc3ccccc23)cc1,inactive: 79%
13,COc1ccc(N2C(S)=C(C#N)C(=O)NC2c2ccccc2)cc1 (stereo not drawn),inactive: 124%
14,COc1ccc(C)cc1Nc1cc(C)nc(C)n1,inactive: 83%
15,O=C(CN1C(=O)c2cccnc2Oc2ccc(Cl)cc21)Nc1cccc(C(F)(F)F)c1,inactive: 64%
16,COc1cc(NC(=O)CSc2ccc(-c3ccccn3)nn2)cc(OC)c1,inactive: 90%
17,COc1nc(-c2ccccc2)nc(C)c1CC(=O)O,inactive: 101%
18,O=C(Cc1ccc(-c2ccccc2)cc1)NCCS(=O)(=O)N1CCN(c2ccccc2)CC1,inactive: 127%
